From article PMC2784894 (Chemistry & biology, 2009)
pIC50: −log10 of the molar value.

Tests used:
Arp2/3 complex = assay: actin polymerization stimulated with Arp2/3 complex; conditions: high concentrations of SMIFH2
GST-mDia1(FH1FH2) = GST-mDia1(FH1FH2) (Mus musculus, UniProt O08808); assay: TIRF microscopy of filaments assembled from formin immobilized on beads; conditions: read-out: half-maximal inhibition of the average number of filaments per bead
Bni1 = Bni1 (Saccharomyces cerevisiae, UniProt P41832); assay: pyrene-actin assembly fluorescence; assay type: biochemical; conditions: 2.5 μM actin monomer, 75 nM formin, pH 7.0
Fus1 = Fus1 (Schizosaccharomyces pombe, UniProt Q10719); assay: pyrene-actin assembly fluorescence; assay type: biochemical; conditions: 2.5 μM actin monomer, 10 nM formin, pH 7.0

Structure (SMILES)	actin polymerization stimulated with Arp2/3 complex (Arp2/3 complex)	pIC50 (GST-mDia1(FH1FH2))	maximum polymerization rate at 50 μM (Bni1)	maximum polymerization rate at 50 μM (Fus1)
O=C1NC(=S)N(c2cccc(Br)c2)C(=O)/C1=C/c1ccco1 [SMIFH2]	did not eliminate	~4.82	–	–
O=C1NC(=S)N(c2cccc(Br)c2)C(=O)C1=Cc1ccco1 [compound 1, SMIFH2]	–	–	S. pombe Fus1, S. cerevisae Bni1 and M. musculus mDia2	C. elegans CYK-1, S. pombe Cdc12, S. pombe Fus1
